Our source for the GI50 and TGI values is PubChem BioAssay (NCI).

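Five concentrations, 48 hours, 96-well plates. At the GI50, growth is halved. At the TGI there is no net growth.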

The test relates to NCI-H322M lung. Put plainly: inhibition of tumour cell growth, NCI panel, 48 h.

Regarding `CC(C)(C)c1ccc(CC(=O)Nc2sc3c(c2C(N)=O)CCC(=O)C3)cc1`, the GI50 is 4.26 µM and the TGI stood at 22.5 µM.
For `c1ccc2c(NCCCN3CCOCC3)c3oc4ccccc4c3nc2c1` the same measures were 0.964 µM and 6.26 µM.
